Assay results as given in the RNAGym collection of RNA variant scans (doi:10.7554/elife.90254).
The source gives no read counts; variants with many changes may rest on few reads.

B1: LINE1-mini (parent)
chain: GGCAGAGCUCAACACAGCGUGGCAAAGUGGCUGUGGCUAGACUGCC

Variants of: B1
Assay: self-cleavage, relative activity (ratio to wild type); higher = more cleavage; in vitro, sequencing; the parent is a self-cleaving ribozyme

| Variant | self-cleavage |
| --- | --- |
| GGCAGGACUCAACACAGCGAGGCAAAGUGUCUGUGGCUAGACUGCC | 0.16 |
| GGCAGGGCUCAACACAGCGUGGUAAAGUGGCUGUACCUAUACUUCC | 0.03 |
| GGCAGGGUUCAACACAGCGUGGCAAAAUGGCUGUUAUUAGACUGCC | 0.19 |
| GGCAGGGCUCAAAACACCCUGGCAAAGUGGCUGUGGCUAGACUGCC | 0.03 |
| GGCAGGACUCAACACAGCGUGGCAAAGUGGAUGUGGCAAGACUGCC | 0.05 |
| GGCAGGUCUCAACACAGCGUGGCAAAGUGGCUCUGGCUACACUGCC | 0.12 |
| GGCAGGCCUCAACUCAGCGCGGCAAAGUGGCUGUGGAUAAACUGCC | 0.06 |
| GGCAGGGCUCAACACAGCGUGACAAAGUGACUAUGGCUAGACUGCC | 0.04 |
| GGCAGGUCUCAUCACAGCGUGGCAAGGUGGCUGAGUCUACACUGCC | 0.04 |
| GGCAGGGCUCAACAGAGCGUGACAAAGUGGCAGUGGCUAGACUGCC | 0.02 |
| GGCAGGGCUCAACACAGGGUGGCAAAGUGGUUGUGGCUAGCCUGCC | 0 |
| GGCAGGGCUCAACACAGCGUCGCAAAGUGGCUGUUGCUAGACUGCC | 0.05 |
| GGCAGGGCUGAACACAGCGUGGCAUAGUGGCUGUGGCUAGAAUGCC | 0 |
| GGCAGGGCUCAACACAGCGUGACAAAUUUGCUGUGGCUAGACUGCC | 0.19 |
| GGCAGGGCUCAAAACACCUUGGCUAAGUGGCUGUGGCUAGACUGCC | 0.16 |
| GGCAGGGCUCAACACAGCAUGGUAAAUUGUCUGUGGCUAGACUGCC | 0.06 |
| GGCAGGGCUCAACACAGCGUGGCAAAGUGGCUGUGGUUAGACGGCC | 0.01 |
| GGCAGGGCUCAACAGAGCGUGUCAAAUGGGCUGUGGCUAGACUGCC | 0 |
| GGCAGGGCUCAACACAGCGUGGCAAAGUGGCUAUGGCUAGUCUGCC | 0.03 |
| GGCAGGGCUCAACACAGCGUGCCAAUGUGGCUAUGGCUAGACUUCG | 0.06 |
| GGCAGGCCUCAACACAGCGUGGCAAAGUGUCUGUGGCUAGGCUGCC | 0.01 |
| GGCAGGGCUUAACACAGCGUGGCAAAGUUGCUGUGGCUAGACUGCC | 0.05 |
| GGCAGGGCUCAACACAGCGUGGGAACGUGGCUGUGGUUAGACUGCC | 0.02 |

| Variant | self-cleavage |
| --- | --- |
| GGCAGGCCUCAACACAGCGUGGCUAAGUGGCUGAGGCUAGACUGCC | 0.01 |
| GGCAGGUCUUAACACAGCGUGGCAAAGUGUCUUGGGCUAUACUGCC | 0.02 |
| GGCAGGGCUCAACACAGCGUGCCAAAGUGGCUGCGGCUAGACUGCC | 0.1 |
| GGCAGGGCUCAACACAAUGUGGAAAAGUGGCUGUGGCUAGACUGCC | 0.03 |
| GGCAGGGUUCAACACAGCGUGGCAAAGUGGCUGUGGCCAGACUGGC | 0.04 |
| GGCAGGGCUAAACACAGCGUGGCAAAGUGGCUGUGGCUACACUGCC | 0.02 |
| GGCAGGGCUCAACACAGCGUGGCAAAUUGGCUGUGGCUUGACCGCC | 0.06 |
| GGCAGGGCUCAACACAGCGUGGCAAAGUGGCUGUGGUUAGACUUCC | 0.11 |
| GGCAGGGUCCAACACAGCGUGGCAAAGUGGCUGUGGCUAGACUGCC | 0.06 |
| GGCAGGGUUCAACACAGCGUGGCAAACUGGCUGUGGGUAUACUGCC | 0.02 |
| GGCAGGGCUGAACACAGCGUGGCAAAGUAGCUGUGGCUAGACUGCC | 0.03 |
| GGCAGGGCUCAAUACAGCGUGGCAAAGUGGCUAUGGCCAUACUGCC | 0.05 |
| GGCAGGGCUCAACAUAGCGUGCAAAAGGGGCUGUGGCUAGACUGCC | 0.09 |
| GGCAGGGCUAAACACAGCGUGGCAAAGUCGCUGUGGCUAGACUGCC | 0.05 |
| GGCAGGGCUCAACACAGCGUGGCAAAGUGGUUGUGGCUAGGCUGCC | 0.06 |
| GGCAGGGCUCAACACACCGUGUCAAAGUGGCUGUGCCUAGACUCCC | 0.02 |
| GGCAGGGCUCAACACAGCGUGGCAAAGUGGCUGUGGCUAGAGUGAC | 0 |
| GGCAGGGCUCAACACACCGUGGCAAAGUGUCUUUGGCUAAACAGCC | 0.13 |
| GGCAGGUCUCAUCACAGCAUGGCAAGGUGGCCGUUGCUAGACUUCC | 0.08 |
| GGCAGGGCUCAACACAGCGUGGCAAAGUGGCUUUGGCUAGAAUGCC | 0.07 |
| GGCAGGGCUCAACACAGCGUGGCAAAGUGGCUAUGGCUAGUCUUCC | 0.26 |
| GGCAGGGCUCAACACAGAGUGGCAAAGGGGCUGUGGCCUGACUGCC | 0.09 |
| GGCAGGGCUCAACACAGCGUGGCAAAGUGGCUGUGGCUAGAUUGCA | 0.02 |

| Variant | self-cleavage |
| --- | --- |
| GGCAGGGCUCAACACAGCGUGGCAAAGUGUCUGUGGCUAGACUGGC | 0.04 |
| GGCAGGACACAACACAGCGUGGCCAAGUGGCUGUGGCUAGACUGCC | 0.05 |
| GGCAGGGCUCAACACAGAGUGGCAAAGUGGCUGUAGCUAGACUGCC | 0.04 |
| GGCAGGGCUCAACACAGAGAGGCAAAGUGGCUGUGGCUAGACUGCC | 0.1 |
| GGCAGGGCUCAACACAACGAGGCAAAGUGGCUCUGGCUAGACUGCC | 0.03 |
| GGCAGGGCUCAACACAGUGUGGCAAAGUGGCUGUCGCUAAACUGCC | 0 |
| GGCAGGGCUCAACACAGCGUGGCAAAGUGGGUGUGGCUAAACUGCC | 0.04 |
| GGCAGGUCUCAACACAGCGUGGCACAGUGGCUGUGGCUAGACUGUC | 0.06 |
| GGCAGGGCUCAACACAGCGUGACAAGGUGCCUGUGGCUAGACUGCA | 0.08 |
| GGCAGGACUCAACACAGCGUUGCAACGUGGCUGUCGCUAGACUGCC | 0.1 |
| GGCAGGGCUCAAUACAGCGUGGCAAAGUGUCUGUGGCUAGACUGCC | 0.05 |
| GGCAGGGCUCAACAAAGCGGGGCAUAGUGGCCGUGGCUAGACUGCC | 0.05 |
| GGCAGGGCUCAACACAGCAUGGCAAAGUGGCUGUGGCUAGAAUGUC | 0.12 |
| GGCAGGGCUCAACAUAGCGUGACACAGUGGCUGUUGCUAGACUGCC | 0.03 |
| GGCAGGGCUCAACACAGCGUGGCAAAUUGGCUGUGGCUAGACUGUC | 0.08 |
| GGCAGGGCUCAACACAGCGUAGCAACGUGUCUGUGGAUAUACUGCC | 0.33 |
| GGCAGGGCUCAAAACAGGAUGGCAAAGUGGCUGUGGCUAAACUGCC | 0.01 |
| GGCAGGGCUUAACACAGCGUGGCAAAGUUGCGGUGGCUAGACUGCC | 0.01 |
| GGCAGGGCUCAACACAGCGUGGCAAAAUGUCUGUGGCUAGAUUUCC | 0.75 |
| GGCAGGGCUCAACACAGUGUGGCAAAGUAGCUGUGGCUAGACUGCC | 0.18 |
| GGCAGGUCUCAACACAGCGUCCAAAAGUGGCUGUGGCUAGACUGCC | 0.03 |
| GGCAGGGCUCAAAACAGCGUGGCAAAGUGGAUGUGGCUAGACUGUC | 0.04 |
| GGCAGGGCUCAACACAGCUUGGCAAAGUGGCUGUGGCUAGACCGCC | 0.04 |

| Variant | self-cleavage |
| --- | --- |
| GGCAGGGCUCAACACAGCGUGGCAAAGUGAUUGUGGCUAGACUGCC | 0.03 |
| GGCAGGGCUCAACACAGUGUGGCUAAGUGGCUGUGGCUAGACUGCC | 0.06 |
| GGCAGGGCUCAACACAGCGUGCCAAAGUGACUGUGUAUAGACUGCC | 0.03 |
| GGCAGGGCUCAAGACAGCGUGGCAAAGUGGCUUAGGCUAGACUGCC | 0.03 |
| GGCAGGGCUCAACACAGCAUGGAAAAGUGACUGUGGCUAGACUGCC | 0.04 |
| GGCAGGGUUCAACACAGCGUGGCAAAGUGGCUUUCGUUAGACUGCC | 0.03 |
| GGCAGGGCUCAACACAGCGUGGUAAAGUGGCUGUGGCUAGACUGUC | 0.14 |
| GGCAGGACACAAUACAGCGUGGCUAAGUGACUGUGGCUAUACUGCC | 0.18 |
| GGCAGGGCUAAACACAGCGUGGCAAAGUGGCUGUGACUAGACUACC | 0.07 |
| GGCAGGGCUCAACACAGCGUGGCAAAGUGGCUGUGGAUUGACUGCC | 0.15 |
| GGCAGGGCUCAACACAGCGUGGCAAACUGACUGUGGCUAUACUGCC | 0.06 |
| GGCAGGGCUCAACACAGCGUAGCAAAGUGGCUGUGGCUAGGCUGCC | 0.22 |
| GGCAGGGUACAACACAGCGUGUCAAAGUGGCUUUGGCUAGACUUCC | 0.07 |
| GGCAGGGCUCAAGACAGCGUGGCAAAGUGGCUGUGGCUAGACUACC | 0.09 |
| GGCAGGGCUGUACACUGCAUCGAAAAGUUGCUGUGGCUGGACUGCC | 0 |
| GGCAGGGCUCAACACAGCGUGGCAAAACGGCUGUGGCUAGACUUCC | 0.04 |
| GGCAGGGCUCAACACAGCGUGGCAAAGUGUAUGUAGCUAGACUGCC | 0.01 |
| GGCAGGACUCAACACAGCGUGGCAAAGUGGCUGUGGCUAGACUGAC | 0.62 |
| GGCAGGGCUCAACACAGCCUGGUAAAGUGGCUUUGGCUAGACUGCC | 0.06 |
| GGCAGGGCUUAACACAGCGUGGCAAAGUGGGUGUGGCUAGACUGCU | 0.01 |
| GGCAGGGCUCAACACAGCGUGGCAAAGUGGCUGUGGGGAGAAUGCC | 0.01 |
| GGCAGGGCUCAACACAGUAUGGCAAAGUGGCUGUGGCUAGACUGCC | 0.39 |
| GGCAGGUAUCAACACAGCGAGGCAUAGUGGCUUUGGCUAGACUGCC | 0.22 |

| Variant | self-cleavage |
| --- | --- |
| GGCAGGACUCAACACAGCGUGGCAAAGUGGCUGUGGCUAGUCUGCA | 0.07 |
| GGCAGGGCUCAACACAGCGUGGCAAAGUGGCUGUGCCUAGGCUGCG | 0.01 |
| GGCAGGGCUCAACAGAGCCUGGCAAAGUGGCUGUGAAUAGACUGCC | 0.02 |
| GGCAGGGCUCAACACAGCGUGGUAAAGUGGCUGUUGCUCGACUGCC | 0.01 |
| GGCAGGGCUCAACACAACCUGUCAAAGUGGCUGUUGCUAGACUGCC | 0.07 |
| GGCAGGGCUCAAAACAACGUGGGAAAGUGGUUGUGGCUAGAAUGCC | 0.02 |
| GGCAGGGUUCAACACAGCGUGGCAAAGUGGCUGUGCCUAGACUGCA | 0.67 |
| GGCAGGGCUCAACACAGCGUGACAAAGUGGCGGUGGCAAGACUGCC | 0 |
| GGCAGGGCUCAACAGAGCAUGGCAAAGUGCCUGUGGCUAGACUCCC | 0.01 |
| GGCAGGGCUAAACAUAGCGUGGCAAAGUGGCUGUGGCUAGACUGAC | 0.02 |
| GGCAGGGCUCAACAAAGCGUAGCAAAGUGGCUAUGGCUAGAAUGUC | 0.02 |
| GGCAGGGCUCAACACAGUGUGGCAACGUGGCUGUGUCUAGACUGCC | 0.28 |
| GGCAGGGCUCAACACAGCGUGGUAAAGUGGCUGUGGCCAGACUGCC | 0.18 |
| GGCAGGGCUCAACACACCGUGGCAAAGUGGCUGUGGCCAGACUGCA | 0 |
| GGCAGGGCUCAACACAGCGUGGCAAAGUGGCUGUGUCUAGACUUCC | 0.03 |
| GGCAGGGCUCAACACACCGUGGCAAAGUGGCUGAGGCUAGACUGCC | 0.04 |
| GGCAGGGCUCAACAGAGCGUAGCAAAGUGGCUGUGGCUCGAAGGCC | 0.04 |
| GGCAGGGCUCAACACAGCGUGGGAAAGUGGAUGUGGCUAGACUGCC | 0.01 |
| GGCAGGGCUCAACAUAACGUGGCAUAGUGGCUGUGGCUAGACUGCC | 0.19 |
| GGCAGGGCUCAACACAACGAGGCAAAGUGGCUGUGGCUACACUGCC | 0.03 |
